What was measured:
E64AK-A9-mFc = target: T1, E64AK-A9-mFc (mouse, UniProt P01863 123-330 = IgG part); assay: ELISA, antigen coated
T1 construct: scFv fused to the Fc of mouse IgG2a by a linker; also called E64AK-A9-mFc fusion antibody; E64AK-A9-mFc antibody fusion protein

CL-E2-mFc = target: T2, CL-E2-mFc (mouse, UniProt P01863 123-330 = IgG part); assay: ELISA, antigen coated
T2 construct: scFv fused to the Fc of mouse IgG2a by a linker, made in HEK 293F; also called CL-E2-mFc fusion protein; CL-E2-mFc antibody

Kd (E64AK-A9-mFc): 1.2 nM
Kd (CL-E2-mFc): 4.2 nM
B1: hIL-1βE64AK (ligand)
chain: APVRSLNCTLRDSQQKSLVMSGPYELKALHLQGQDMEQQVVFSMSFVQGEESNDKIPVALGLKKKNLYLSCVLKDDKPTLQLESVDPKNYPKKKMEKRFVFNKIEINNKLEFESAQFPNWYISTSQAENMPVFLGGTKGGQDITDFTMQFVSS
modifications: Nε-acryloyl-L-lysine (AK) at position 64
notes: Non-canonical amino acid put in by amber suppression
